The results in this text go back to PMC4336329 (PLoS ONE, 2015).

In all, about 310,000 compounds went through this assay and about 14,000 (4.5%) showed an effect of 50% or more. The effect is printed as a negative number. This is one part of the list.
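Note: peak tail current of the secondary pulse compared with the same well before compound.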

Sequence of human ether-à-go-go-related gene (hERG) potassium channel (Q12809 whole entry, looked up): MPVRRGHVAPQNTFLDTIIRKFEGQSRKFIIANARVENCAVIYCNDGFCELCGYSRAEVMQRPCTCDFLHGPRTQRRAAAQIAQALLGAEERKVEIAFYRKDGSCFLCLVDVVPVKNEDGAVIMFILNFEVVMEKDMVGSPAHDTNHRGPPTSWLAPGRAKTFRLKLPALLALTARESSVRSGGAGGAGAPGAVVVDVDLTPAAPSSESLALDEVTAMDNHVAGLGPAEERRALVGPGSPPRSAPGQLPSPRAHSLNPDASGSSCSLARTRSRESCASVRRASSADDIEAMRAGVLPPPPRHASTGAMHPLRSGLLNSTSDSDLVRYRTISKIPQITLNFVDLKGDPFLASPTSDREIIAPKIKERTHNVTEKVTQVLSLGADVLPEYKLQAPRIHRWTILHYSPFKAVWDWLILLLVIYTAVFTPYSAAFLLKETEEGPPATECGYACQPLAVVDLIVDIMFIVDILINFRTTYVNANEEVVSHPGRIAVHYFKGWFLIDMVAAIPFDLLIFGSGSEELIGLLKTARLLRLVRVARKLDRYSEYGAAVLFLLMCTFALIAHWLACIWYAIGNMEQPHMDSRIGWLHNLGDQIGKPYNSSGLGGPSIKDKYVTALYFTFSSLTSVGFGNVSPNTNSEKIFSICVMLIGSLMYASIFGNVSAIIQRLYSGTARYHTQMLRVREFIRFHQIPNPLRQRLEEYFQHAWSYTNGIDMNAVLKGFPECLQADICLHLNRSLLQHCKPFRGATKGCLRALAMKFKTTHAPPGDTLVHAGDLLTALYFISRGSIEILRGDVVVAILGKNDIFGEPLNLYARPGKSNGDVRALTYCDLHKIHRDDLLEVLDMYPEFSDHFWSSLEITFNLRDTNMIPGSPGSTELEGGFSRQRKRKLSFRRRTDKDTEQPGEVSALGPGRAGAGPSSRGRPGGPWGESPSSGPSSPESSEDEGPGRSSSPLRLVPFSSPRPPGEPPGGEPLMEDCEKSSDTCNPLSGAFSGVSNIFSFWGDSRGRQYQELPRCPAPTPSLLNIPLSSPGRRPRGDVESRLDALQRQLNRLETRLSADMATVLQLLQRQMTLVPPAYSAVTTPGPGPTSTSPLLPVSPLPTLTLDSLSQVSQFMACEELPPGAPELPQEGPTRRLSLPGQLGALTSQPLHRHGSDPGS

The assay concerns the target human ether-à-go-go-related gene (hERG) potassium channel (human, UniProt Q12809). Put plainly: primary screen, population patch clamp on CHO cells stably expressing hERG.
Take `CC1CCC(NC(=O)C2CC(=O)N(c3ccc(Cl)cc3)C2)CC1` (centres unmarked): the “hERG current change (%, negative = inhibition) at 10uM” value worked out at 13.8%. In the case of `CC1CN(CC(=O)Nc2ccc([N+](=O)[O-])cc2Br)CC(C)O1` (centres unmarked) it was -33%; in that of `O=C(c1ccc(Br)cc1)N1CCN(c2ncccn2)CC1`, -10.7%. Regarding `O=C(O)c1cccnc1SCC(=O)N1CCCCCC1`, the “hERG current change (%, negative = inhibition) at 10uM” value was -2.09%. Turning to `O=C(NCc1ccc2c(c1)OCO2)c1ccc(N2CCCC2=O)cc1`, the “hERG current change (%, negative = inhibition) at 10uM” value worked out at 8.43%. Regarding `Cc1ccc(C(=O)N(CCc2ccccc2)Cc2ccccc2)cc1S(=O)(=O)N1CCCCC1`, the “hERG current change (%, negative = inhibition) at 10uM” value is on record as -14.9%. Regarding `Cc1cc(C(=O)CNCc2ccco2)c(C)n1-c1ccc(F)cc1`, the “hERG current change (%, negative = inhibition) at 10uM” value is -7.75%. Consider `CCn1c(SCC(=O)Nc2cc(C)on2)nnc1-c1ccc(S(=O)(=O)N2CCN(C)CC2)cc1`, for which the “hERG current change (%, negative = inhibition) at 10uM” value is given as -23.1%. `O=C(Nc1ccccc1)c1cc2c(=O)c3ccccc3oc2nc1C(F)(F)F`: the “hERG current change (%, negative = inhibition) at 10uM” value was determined as 11.1%. For `Cc1cc(NC(=O)CN2C(=O)c3ccccc3C2=O)no1`, the “hERG current change (%, negative = inhibition) at 10uM” value is on record as 11.4%.

As for `CCn1nc(C)c(/C=N/NC(=O)Cn2nccc2C)c1C`, the “hERG current change (%, negative = inhibition) at 10uM” value was determined as 2.17%. For the compound `CCCCC(=O)OCc1cn(-c2ccc(Cl)cc2)nn1`, the “hERG current change (%, negative = inhibition) at 10uM” value stood at 0.689%. As for `CN(C)/C=C/c1c(C#N)c(=O)ncn1Cc1ccccc1`, the “hERG current change (%, negative = inhibition) at 10uM” value is 15.9%. With `COc1cc(OC)c(NC(=O)c2ccoc2C)cc1Cl`, the “hERG current change (%, negative = inhibition) at 10uM” value was determined as 12.7%. With `CC(C)c1ccc(S(=O)(=O)c2cn(Cc3ccc(F)cc3)c3cc4c(cc3c2=O)OCO4)cc1`, the “hERG current change (%, negative = inhibition) at 10uM” value is reported as -1%.

Take `COc1ccc(-c2cc(C(=O)N3CCN(c4ccccc4F)CC3)c3ccccc3n2)c(OC)c1`: the “hERG current change (%, negative = inhibition) at 10uM” value was found to be 2.56%. Turning to `O=C(Nc1ccc(Cl)cc1)Nc1nnc(SCc2ccccc2)s1`, the “hERG current change (%, negative = inhibition) at 10uM” value is reported as 9.24%. In the case of `O=C(NC1CC(=O)N(c2ccc(F)cc2)C1)N1CCN(C(=O)c2ccco2)CC1` (centres unmarked), the “hERG current change (%, negative = inhibition) at 10uM” value was -63%. With `CC(=O)Nc1ccc(S(=O)(=O)NCC2CCC(C(=O)NCCCN(C)Cc3ccccc3)CC2)cc1` (centres unmarked), the “hERG current change (%, negative = inhibition) at 10uM” value is reported as 6.98%. In the case of `CCN(CC)C(=O)NC1CC2CCCC(C1)N2Cc1ccccc1` (centres unmarked), the “hERG current change (%, negative = inhibition) at 10uM” value is recorded as -6.25%. As to `O=[N+]([O-])c1cc([N+](=O)[O-])c(Oc2cc(Cl)cc(Cl)c2)cc1NN1CCCCC1`, the “hERG current change (%, negative = inhibition) at 10uM” value is 18.4%.

Take `Cc1c[n+]([O-])cc(C)c1Oc1ccccc1`: the “hERG current change (%, negative = inhibition) at 10uM” value is recorded as 5.95%. In the case of `CCCN(CC(=O)Nc1ccc(OC)c(OC)c1)CC(=O)Nc1ccc(F)c(F)c1F`, the “hERG current change (%, negative = inhibition) at 10uM” value is on record as -24.6%. `CC(C)(CO)NC(=O)Nc1ccc(Cl)c(Cl)c1`: the “hERG current change (%, negative = inhibition) at 10uM” value is 19.4%. The value for `Cc1ccc(-c2cc(C(=O)Nc3cc(C)ccc3C)[nH]n2)c(O)c1` was 17.4%; that for `CN(Cc1ccccc1)C(=S)Nc1cccnc1` was 9.05%. Consider `Cc1ccc(O)c(N/C=C/C(=O)c2ccc(F)cc2)c1`, for which the “hERG current change (%, negative = inhibition) at 10uM” value worked out at 5.9%. Consider `CC(C)(C)C1=C(C#N)C(c2ccncc2)C(C#N)=C(N)O1` (centres unmarked), for which the “hERG current change (%, negative = inhibition) at 10uM” value is recorded as -7.03%. As to `Cc1ccc(N2CCC(N3CCN(C4CCCCC4)C(CCO)C3)CC2)cc1` (centres unmarked), the “hERG current change (%, negative = inhibition) at 10uM” value is -31.7%.

Take `COc1ccc(C(=O)NC2CCN(C(=O)NCc3ccccc3)CC2)cc1`: the “hERG current change (%, negative = inhibition) at 10uM” value is reported as -5.45%. For `CCN(CC)CC.COc1ccccc1-n1c(=S)[nH]c2c(sc(=S)n2-c2ccccc2C)c1=O`, the “hERG current change (%, negative = inhibition) at 10uM” value came to 19.2%. For `COC(=O)c1nnn(CC(=O)Nc2ccc(C)c(F)c2)c1C(=O)OC`, the “hERG current change (%, negative = inhibition) at 10uM” value was 10.4%.

For the compound `Cc1nn(-c2ccccc2)c(C)c1C(=O)OCC(=O)N1CCN(S(=O)(=O)c2ccccc2)CC1`, the “hERG current change (%, negative = inhibition) at 10uM” value was -11%.

Take `O=C1CC(C(=O)Nc2ccc(Cl)cc2[N+](=O)[O-])C2(CCCCC2)O1` (centres unmarked): the “hERG current change (%, negative = inhibition) at 10uM” value was 5.12%. `COCC(=O)N1CCC(Oc2ccc(C(=O)NC3Cc4ccccc4C3)cc2)CC1`: the “hERG current change (%, negative = inhibition) at 10uM” value was -3.57%.

Take `CC(=O)N1CCCc2cc(S(=O)(=O)NCc3ccc(C)cc3)ccc21`: the “hERG current change (%, negative = inhibition) at 10uM” value is on record as -14.9%. Regarding `COc1ccccc1Nc1nnc(SCc2nnc(-c3cc(OC)c(OC)c(OC)c3)o2)s1`, the “hERG current change (%, negative = inhibition) at 10uM” value was -21.7%. In the case of `O=C(NCc1ccccc1)c1onc(CSc2ccc(F)cc2)c1C(=O)NCc1ccccc1`, the “hERG current change (%, negative = inhibition) at 10uM” value is 1.49%. For `CCSc1nnc(NC(=O)[C@@H](NC(=O)c2cccc(C)c2)C(C)C)s1`, the “hERG current change (%, negative = inhibition) at 10uM” value is listed as -14.1%. In the case of `O=C(c1cc(-c2ccccc2)on1)N1CCCC1`, the “hERG current change (%, negative = inhibition) at 10uM” value is reported as 9.39%. On to `C=CCN(C(=O)c1ccc2snnc2c1)c1ccccc1`, for which the “hERG current change (%, negative = inhibition) at 10uM” value was -9.13%. As to `CC(C)C(c1nnnn1Cc1ccccc1)N(Cc1ccco1)Cc1cccs1` (centres unmarked), the “hERG current change (%, negative = inhibition) at 10uM” value came to 4.69%. Regarding `CC(=O)Nc1ccc(/C=N/NC(=O)c2cccc(S(=O)(=O)N3CCOCC3)c2)cc1`, the “hERG current change (%, negative = inhibition) at 10uM” value is listed as 28.2%. The value for `CCC(C)NC(=O)c1ccccc1NC(=O)CN(c1ccc(OC)cc1)S(C)(=O)=O` (centres unmarked) was 1.59%.
